Assay results taken from PubChem BioAssay (NCI).
“And” between values parts separate entries of the source, which are not always exact repeats. Identical values can stand only once.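 Protocol summary: plate cells (96-well), add compound at 5 concentrations, incubate 48 h, interpolate endpoints linearly. Here, GI50 denotes the concentration required for 50% inhibition of growth. Definition used: TGI = concentration required for complete inhibition of growth.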

Test system: NCI-H322M lung
Experiment: NCI tumour cell line growth inhibition, 48 h

| SMILES | GI50 | TGI |
| --- | --- | --- |
| COc1ccc(-c2[nH]ncc2Nc2cc(OC)c(OC)c(OC)c2)cc1 | > 20.4 µM | > 100 µM |
| NC(=O)c1ncn(C2OC(CO)C(O)C2O)c1O (stereo not drawn) | – | > 100 µM |
| Cn1c(I)c(C#C[Si](C)(C)C)c(=O)[nH]c1=O | 17.3 µM | 32.3 µM |
| CSc1ccc2c(c1)c(CCN)c(C)n2Cc1ccccc1Cl | – | 3.01 µM |
| COC(=O)C(=O)C(C(=O)OC)C(=O)C(=O)Nc1c(Cl)cc([N+](=O)[O-])cc1Cl (stereo not drawn) | – | > 100 µM |
| CC1=C(C(=O)Nc2ccc(Cl)c(Cl)c2)C(c2cccc(Cl)c2)NC(=S)N1 (stereo not drawn) | 12.3 µM | 37.3 µM |
| Cc1nn2c(c1C#N)NNc1c-2sc(=N)nnc1=O | – | > 100 µM |
| CC(C)(C)OC(=O)N1N=CCC1c1ccccc1 (stereo not drawn) | – | > 100 µM |
| COc1ccc(-c2cc(-c3ccc(Nc4ccnc5cc(Cl)ccc45)cc3)[nH]c(=O)c2C#N)cc1 | – | > 100 µM |
| O=C(CI)Nc1ccc(Br)cc1 | 18.1 µM | 36 µM |
| CCN(CC)C(=S)SS(C)(=O)=O | – | > 100 µM |
| Cc1cc(O)c2c(c1)C(C1c3cccc(O)c3C(=O)c3c(O)cc(C)cc31)c1cccc(O)c1C2=O (stereo not drawn) | – | 20.2 µM |
| Cc1ccc(NC(=O)C2C3CCC(O3)C2C(=O)O)cc1 (stereo not drawn) | – | > 100 µM |
| COc1ccc2c(c1)nnc1c3cccnc3[nH]c21 | 10.1 µM and 8.36 µM | 50 µM and 38.2 µM |
| CN(C)CCCn1c(Cn2nc3ccccc3n2)nc2cc(C(F)(F)F)ccc21 | – | > 100 µM |
| CSc1nnc(C(C#N)C#N)nn1 | – | > 100 µM |
| NC(=O)/N=C/c1c(O)c2ccccc2oc1=O | – | > 100 µM |
| CC1(C)C(=O)/C=C\C(=O)C(C)(C)C(=O)/C=C\C(=O)C(C)(C)C2=CC=C(O2)C(C)(C)C(=O)/C=C\C1=O | – | 36.8 µM |
| COC(=O)[C@@]12C3=NO[C@]1(C(=O)OC)C(O[Si](C)(C)C(C)(C)C)[C@@H](OC(C)=O)[C@@H](OC(C)=O)[C@@H]2[C@@H](OCc1ccccc1)CC3 (stereo partly drawn) | – | > 100 µM |
| COc1ccc2[nH]c3c(c2c1)CC(=O)N1CCC[C@H](C1)CC31OCCCO1 | – | > 100 µM |
| Cc1ccc(S(=O)(=O)N(CCNC(=O)c2cccc(O)c2O)c2cc3c4c(c2)Oc2cccc5c2C4(C)c2c(cccc2O3)O5)cc1 | – | > 100 µM |
| Cc1[nH]c2cc([N+](=O)[O-])ccc2c1[N+](=O)[O-] | – | 63 µM |
| O=S(=O)(c1ccccc1)c1ccc(-c2nc(-c3ccc4c(c3)Sc3ccccc3S4)cs2)cc1 | – | > 100 µM |
| C=C(C)CCC1C=[N+]([O-])OC(C)(C)C1(C)C (stereo not drawn) | – | > 100 µM |

| SMILES | GI50 | TGI |
| --- | --- | --- |
| COC(=O)C(CCC1(C)OCCO1)=[N+]=[N-] | – | > 100 µM |
| FC(F)(F)c1cccc(-c2[nH]ncc2-c2nnnn2-c2ccccc2)c1 | 10.6 µM | 29.8 µM |
| CCN1C(=O)N(CC)C2C1N=C(SC)N2/N=C/C=C/c1ccccc1OC (stereo not drawn) | 0.815 µM | > 45.9 µM |
| O=C1c2cccnc2-c2nccc3c2c1nc1ccccc13 | – | 0.989 µM |
| Fc1ccc(Nc2nc(Nc3ccc(-c4nc5ccccc5[nH]4)cc3)c3cn[nH]c3n2)cc1 | 2.09 µM | 6.01 µM |
| O=C(NC1C/C(=N/O)c2c(Br)sc(Br)c21)C(F)(F)F (stereo not drawn) | – | > 100 µM |
| COc1ccc(C2=Nc3ccccc3N=C(SC)C2)cc1 | – | > 100 µM |
| CC[C@]12C=CCN3CC[C@@]4(c5cc(Br)c(OC)cc5N(C)[C@H]4[C@@](O)(C(=O)NC(Cc4c[nH]c5ccccc45)C(=O)OC)[C@@H]1O)[C@@H]32 (stereo partly drawn) | – | > 100 µM |
| COc1cc(C(=O)n2nc(N)c3c(C)cc(C)nc32)cc(OC)c1OC | > 100 µM | > 100 µM |
| O=C(NC1=C(Cl)C(=O)c2ccccc2C1=O)C(=O)C(C(=O)c1ccc2ccccc2c1)C1OC(=O)c2ccccc21 (stereo not drawn) | – | 13.9 µM |
| Cc1ccnc(Nc2[nH]c(C(=O)c3ccc(Cl)cc3)c(N)c2C(=S)Nc2ccccc2)c1 | – | 51.7 µM |
| S=C(SSC(=S)N1CCCCC1)N1CCCCC1 | 15.3 µM | > 100 µM |
| CCOC(=O)/C=C1/SC(=Nc2ccc(C#N)cc2)N(Cc2ccco2)C1=O | 10.9 µM | 23.1 µM |
| COc1cc(O)c(C(=O)/C=C/c2ccc(OC)c(OCc3ccccc3)c2)c(OC)c1 | – | > 100 µM |
| CSc1nc(NCc2ccccc2)c2cnn(COCCO)c2n1 | – | > 100 µM |
| CCc1c(C)c2cc(-n3c(-c4ccc(OC)cc4)csc3=N)c(O)c(C)c2oc1=O | 2.19 µM | 12.3 µM |
| Cc1ccc(-c2nc3sc(C)cn3c2/C=C2\C(=O)Nc3ccc(Cl)cc32)cc1 | 18 µM | > 100 µM |
| CSc1nc(SC)c2c(C)cn(COCCOC(=O)c3ccccc3)c2n1 | – | > 100 µM |
| COc1ccc(C(=O)C(C(=O)C(=O)NCCCNC(=O)C(=O)C(C(=O)c2ccc(OC)cc2)c2ccc(OC)cc2)c2ccc(OC)cc2)cc1 (stereo not drawn) | – | > 100 µM |
| CN(C)c1ccc2[nH]c3c(C(N)=O)cc(=O)c(=O)c=3oc2c1 | 6.48 µM | > 100 µM |
| O=C(CCc1ccccc1)CC1OC(=O)C(Cl)=C1Cl (stereo not drawn) | – | 35.9 µM |
| COc1cccc(OC)c1NC(=O)C(=O)Nn1c(NNC(=O)c2ccncc2)nc2ccccc2c1=O | – | > 100 µM |
| CC1=C[C@@H]2c3c(c(O)c(O)c4oc5cc(O)cc(O)c5c(=O)c34)[C@@H](c3cc(O)c(O)c4oc5cc(O)cc(O)c5c(=O)c34)[C@@H]2C(C)(C)C1 | 3.6 µM | 13.9 µM |
| CCN(CC)c1c(C)nnn1C1OC(COC(C)=O)C(OC(C)=O)C(OC(C)=O)C1OC(C)=O (stereo not drawn) | – | > 100 µM |

| SMILES | GI50 | TGI |
| --- | --- | --- |
| N#Cc1c(N)nc(N2CCOCC2)c(C#N)c1-c1c(Cl)cccc1Cl | 33.2 µM | > 100 µM |
| CNc1cc(-c2cccc(OC(F)(F)F)c2)nc2ccc(N3CCCC3)cc12 | 1.63 µM and 1.77 µM and 1.79 µM | 3.02 µM and 3.25 µM and 3.19 µM |
| COc1cc(-c2ccc[nH]2)[nH]c1/C=C1\N=C(C)C(CC(=O)OCC(C)(C)C)=C1C | 0.523 µM | 2.23 µM |
| COc1cc(O)c(Cc2ccccc2O)c(O)c1C(=O)CCc1ccccc1 | – | 24.1 µM |
| CCCCOC(=O)NC(=O)c1cn(CCCOC(=O)CCCCCCCCC(=O)OCCCn2cc(C(=O)NC(=O)OCCCC)c(=O)n(C)c2=O)c(=O)n(C)c1=O | – | > 100 µM |
| Nc1ccn(C2CCC(COP(=O)(O)OCC(O)COP(=O)(O)OCC3OC(n4cc(F)c(=O)[nH]c4=O)CC3O)O2)c(=O)n1 (stereo not drawn) | – | > 100 µM |
| CCCCCCCCCCCC[N+]12CC[N+](C)(CC1)CC2 | – | > 100 µM |
| CSC(C1c2ccccc2N(C)c2[nH]c(=O)n(C)c(=O)c21)S(=O)(=O)c1ccc(C)cc1 (stereo not drawn) | – | > 100 µM |
| COc1ccc2nc3ccccc3c(NCCNCC(C)O)c2c1 (stereo not drawn) | 0.288 µM | 1.43 µM |
| COc1ccc2c(c1)-c1c(c3cc(OC)ccc3n(CCN(C)C)c1=O)C2=O | 0.423 µM | 3.04 µM |
| COc1ccccc1C(=O)OCC1CCCN2CCCCC12 (stereo not drawn) | – | > 100 µM |
| Oc1[nH]c2ccccc2c1C=Nc1ccc(-n2cncn2)cc1 | > 25 µM | > 25 µM |
| O=S(O)c1cc(Cl)c(O)c(Cl)c1 | – | > 100 µM |
| CC(=O)C1C(=O)C(=O)N(CCN2C(=O)C(=O)C(C(C)=O)C2=O)C1=O (stereo not drawn) | – | > 100 µM |
| COc1ccc(-c2c(-c3ccc(C#N)c(F)c3)nc(N3CCC(N)CC3)n(C)c2=O)cc1F | 22.3 µM | > 100 µM |
| O=C(Oc1c(Cl)cc(Cl)cc1Cl)c1ccccc1Nc1ccnc(C(F)(F)F)c1 | 20.2 µM | 58.1 µM |
| COc1ccc2c(c1)C(=O)c1c-2n(CCCN(C)C)c(=O)c2cc([N+](=O)[O-])ccc12 | 0.0267 µM | 2.53 µM |
| CN1CCN(c2nc(N)c(Br)c(Cl)n2)CC1 | – | > 100 µM |
| COc1ccc(N2C(=O)/C(=C/c3ccc(N(CCC#N)CCC#N)cc3)N=C2c2ccccc2)cc1 | – | > 100 µM |
| CN(CCCCCl)P(=O)(OCc1ccc([N+](=O)[O-])o1)OCC1OC(n2cc([N+](=O)[O-])c(=O)[nH]c2=O)CC1O (stereo not drawn) | 19 µM | > 100 µM |
| O=c1/c(=C/c2ccccn2)sc2nc3cc4c(cc3n12)OCCO4 | – | > 100 µM |
| COc1cc(/C=C/C(=N\NC(N)=S)c2sc(NNC(C)=O)nc2C)ccc1O | – | > 100 µM |
| C=C1CCOC2(C(O)C(C)(O)CO)NC(=O)C1(O)NC2=O (stereo not drawn) | – | > 100 µM |
| CCOC(=O)NN(C(=O)OCC)C(C(=O)c1ccccc1)N(NC(=O)OCC)C(=O)OCC | – | > 100 µM |

| SMILES | GI50 | TGI |
| --- | --- | --- |
| Cc1cc(C)n(-c2nc(C)c(CCO)c(=O)[nH]2)n1 | – | > 100 µM |
| COc1ccc(-c2nnc3n(C)c4ccccc4n3c2=O)cc1 | – | > 100 µM |
| CC(=O)NC(C)(C)C1CCC(C)CC1 (stereo not drawn) | – | > 100 µM |
| CSc1ncc2c(n1)-c1ccccc1OC2 | – | > 100 µM |
| O=C1/C(=C/c2ccc(C(F)(F)F)cc2)COc2ccc(O)c(O)c21 | 1.5 µM | 2.86 µM |
| Fc1ccc(C(OCCN2CCC3CCC(C2)N3C/C=C/c2cccs2)c2ccc(F)cc2)cc1 (stereo not drawn) | – | 25.1 µM |
| CN(C)S(=O)(=O)c1nc(Cl)c2[nH]cnc2n1 | – | > 100 µM |
| O=C(NCCNCCO)c1ccc(Nc2nc3ccccc3c3occc23)cc1 | 2.69 µM | 12.8 µM |
| O=C1/C(=C/c2ccc([N+](=O)[O-])o2)Oc2ccc(Cl)cc21 | 25.4 µM | > 100 µM |
| CCN(C(=O)N[C@H](C(=O)N[C@@H](CSC)C(=O)N[C@@H](C)C(=O)OC)C(C)C)c1ccccc1 | – | 30.1 µM |
| COc1ccc(C2=NNC(=O)c3ccccc3N2c2nc(-c3cccs3)nc3cc(OC)c(OC)cc23)cc1 | – | > 100 µM |
| CC(C)(C)[Si](C)(C)OC1[C@@H](COC(=O)NC(=O)CCl)O[C@@H](n2cnc3c(N)ncnc32)[C@H]1O[Si](C)(C)C(C)(C)C (stereo partly drawn) | 9.78 µM | 17.3 µM |
| Cc1[nH]c2nccn2c(=O)c1CCO | – | > 10 µM |
| CCOC(=O)c1cc(C)nc2c1c(=O)n(-c1ccccc1)c(=O)n2CCCCN1CCN(c2ncccn2)CC1 | – | > 100 µM |
| N#CC1=C(N)OC2=C(CCOc3c2ccc2ccccc32)C1c1ccc(Br)cc1 (stereo not drawn) | 31.9 µM | 89.8 µM |
| CC1OC(O[C@@H]2C=C3CC[C@@H]4[C@H](CC[C@]5(C)[C@@H](c6ccc(=O)oc6)CC[C@]45O)[C@@]3(C)CC2)C(O)C(OC2OC(CO)C(O)C(O)C2O)C1O (stereo partly drawn) | – | 0.00411 µM |
| CCC(=O)Nc1nnc(Cc2ccc(OC)c(OC)c2)s1 | > 100 µM | > 100 µM |
| C(=N\Nc1ccc2ccccc2n1)/c1ccccn1 | 0.271 µM | 4.48 µM |
| O=C1Nc2ccc(Br)cc2/C1=N/N1C(=O)C(=O)N(C2CCCCC2)C1=S | – | 35.1 µM |
| CC12O[C@H](C[C@@H](OC(=O)CCC(=O)O)[C@H]1O)n1c3ccccc3c3c4c(c5c6ccccc6n2c5c31)C(=O)NC4=O | 1.79 µM | > 50 µM |
| C/C(=N\NC(N)=S)c1nc2ncccc2[nH]1 | – | > 100 µM |
| COc1cc(C2NC(=O)C(C#N)=C(Nc3cccc(C)c3)S2)ccc1O (stereo not drawn) | > 100 µM | > 100 µM |
